Laboratory results taken from patent US20230242876A1 (SHANGHAI SINOBIO BIOTECH, published 2023).

Tests used:
CD3-4-1BBL BsM_D = target: T1, CD3-4-1BBL BsM_D; test: ELISA, antigen coated at 1 ug/ml, binder titrated from 10 ug/ml, OD450
T1 construct: disulfide-linked dimer; also called anti-CD3/4-1BBL bispecific molecule of dimeric form

CD3-4-1BBL BsM_M = target: T2, CD3-4-1BBL BsM_M; test: as above
T2 construct: also called anti-CD3/4-1BBL bispecific molecule of monomeric form

B1: human 4-1BB-hFc recombinant protein (Fc fusion)
chain: not shown
notes: Purchased from Novoprotein; also called 4-1BB-hFc recombinant antigen; not shown: human Fc (hFc) of the purchased fusion
B1: binds (CD3-4-1BBL BsM_D); binds (CD3-4-1BBL BsM_M).
